Source: PubChem BioAssay AID624202 (National Center for Advancing Translational Sciences (NCATS), 2012)
Out of some 380,000 compounds screened, about 4,000 (1.1%) were called active. Inconclusive results, whose numbers are uncertain, are shown with a selection of clear calls. Calls come from the whole dose curve; as a rule, active = well fitted activation curve with a large enough effect; inconclusive = small, poorly fitted or top-dose-only effect; inactive = no such curve, though single readings can be large or run the other way. A potency beside an inconclusive call is a rough fit, not a confirmed value.

Experiment: qHTS Assay to Identify Small Molecule Activators of BRCA1 Expression; note: nearly all actives have a fitted effect of over 80% in size
Settings: MCF7-BRCA1-FFLuc reporter, luminescence, 48 h; activation: at 46.1 µM (top of the series), scaled: vehicle 0%, 10 µM genistein 100% unless noted
Outline: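 Activators of BRCA1 expression were detected as increased firefly luciferase luminescence in engineered MCF7 cells after 48 h compound incubation. Signals were scaled to genistein 10 microM as full activation.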
Potency is the fitted concentration of half-maximal effect; tags give direction and shape of the fitted curve.

| SMILES | activation | Potency |
| --- | --- | --- |
| Cn1c(=O)c2c(ncn2CC(=O)OCC(=O)Nc2ccc(F)cc2Cl)n(C)c1=O | inactive: -8.55% |  |
| CC(=O)Nc1ccc(C=NNc2ccc([N+](=O)[O-])cn2)cc1 |  | inconclusive: 2.82 µM [activator, full curve, poor fit] |
| CCOc1ccc(NC(=O)Nc2ccc3nsnc3c2)cc1 |  | inconclusive: 20 µM [activator, partial curve, poor fit] |
| O=C(c1cc2c(s1)CCCC2)N1CCN(S(=O)(=O)c2ccccc2C(F)(F)F)CC1 | inactive: -39.5% |  |
| O=[N+]([O-])c1ccc(CNc2cccc(Cl)c2)s1 | inactive: -40.9% |  |
| CNc1cc(-c2cccc(N(C)C)c2)ncn1 |  | inconclusive: 2.51 µM [activator, partial curve, poor fit] |
| c1coc(CNc2nc3ccccc3s2)c1 |  | active: 3.16 µM |
| COC(=O)c1ccccc1N=NNc1ccc([N+](=O)[O-])cc1 |  | inconclusive: 12.6 µM [activator, partial curve, poor fit] |
| COc1nc(NCc2ccco2)nc(NC2CCCCC2)n1 |  | inconclusive: 22.4 µM [activator, single point] |
| Cc1ccc(C(=O)Nc2ccc3ncccc3c2)cc1 | inconclusive: -42.2% [activator] |  |
| Cc1ccc(C)c(OC(C)C(=O)Nc2ccc(S(=O)(=O)Nc3nccs3)cc2)c1 (configuration not stated) | inactive: -12.2% |  |
| COCCCn1nnnc1SCC(=O)Nc1ccc2c(c1)OCCO2 | inactive: -2.27% |  |
| COc1ccccc1CCNC(=O)c1c(C)nn(CC(C)C)c1Cl |  | inconclusive: 14.1 µM [activator, partial curve, poor fit] |
| Cc1ccc(C(C)NC(=O)c2c(-c3ccccc3)noc2C)cc1C (configuration not stated) | inactive: -14.4% |  |
| O=C(/C=C/c1ccc2c(c1)OCO2)NC1CCCC1 |  | inconclusive: 35.5 µM [activator, single point] |
| O=C(c1ccc(F)cc1F)C1CCN(c2ccc([N+](=O)[O-])cn2)CC1 | inactive: -37% |  |
| O=C(OCc1ccccc1)c1ccc2c(c1)-c1ccccc1C2=O |  | active: 8.91 µM |
| CCc1nnc(NC(=O)c2cc3c(s2)CCCCC3)s1 |  | inconclusive: 2.51 µM [activator, full curve, poor fit] |
| c1ccc(-c2noc(C34CC5CC(CC(C5)C3)C4)n2)nc1 |  | active: 3.55 µM |
| CC(=O)Nc1cccc(NC(=O)Nc2ccc(C)c(Cl)c2)c1 |  | inconclusive: 8.91 µM [activator, partial curve, poor fit] |
| COc1cccc(C(=O)NCCNC(=O)c2cnccn2)c1 | inactive: 1.38% |  |
| COc1ccc(C=NNc2nc3ccccc3s2)cc1 | inconclusive: -38.4% [activator] |  |
| N#C/C(=C\c1cccc(Cl)c1)C(=O)c1ccccc1 | inactive: 1.46% |  |
| Cc1ccc(NC(=O)NCC2CCN(Cc3cccc(Cl)c3)CC2)cc1Cl | inactive: -86.5% |  |
| CC(C)(C)c1ccc(C(=O)N2CCC(C(=O)NCCC3=CCCCC3)CC2)cc1 |  | inconclusive: 12.6 µM [activator, partial curve, poor fit] |
| CCCC(=O)N(CCN1CCOCC1)c1nc2cc(C)c(C)cc2s1 |  | active: 3.98 µM |

| SMILES | activation | Potency |
| --- | --- | --- |
| O=C(CN(c1cccc(Cl)c1)S(=O)(=O)c1ccc(Cl)cc1)N1CCc2ccccc2C1 | inactive: -15% |  |
| CN(C)c1ccc(-c2csc(C(C)(O)c3ccccc3)n2)cc1 (configuration not stated) |  | inconclusive: 12.6 µM [activator, partial curve, poor fit] |
| COC(=O)c1ccc(-n2cnc3ccccc32)nc1 |  | inconclusive: 11.2 µM [activator, partial curve, poor fit] |
| COc1ccc(OCC(=O)C2CC2)c(C#N)c1 |  | inconclusive: 25.1 µM [activator, single point] |
| CNc1cncc(-c2ccc(F)cc2F)n1 |  | inconclusive: 31.6 µM [activator, single point] |
| N#C/C(=C\c1ccc(N2CCCCC2)o1)C(=O)Nc1cccc(Br)c1 |  | active: 1 µM |
| O=C(CSc1ccccc1)NC1CCCCCC1 |  | inconclusive: 11.2 µM [activator, partial curve, poor fit] |
| Cc1c(C(=O)NC2CCOC2)oc2c(F)cccc12 (configuration not stated) |  | inconclusive: 22.4 µM [activator, single point] |
| OC1(c2ccc(F)cc2)CCN(Cc2nnnn2Cc2cccs2)CC1 | inactive: 5.48% |  |
| CCCCOc1ccc(C(=O)N=c2sccn2C)cc1OC |  | active: 3.98 µM |
| COc1ccc(CC(=O)NNC(=O)COc2ccc(F)cc2)cc1S(=O)(=O)N1CCOCC1 | inactive: 1.42% |  |
| CC(C)(C)n1ncc2c(=O)n(CC(=O)NCCc3ccccc3)cnc21 |  | inconclusive: 20 µM [activator, partial curve, poor fit] |
| O=[N+]([O-])c1ccccc1/C=N/N1CCN(Cc2ccccc2)CC1 |  | inconclusive: 14.1 µM [activator, partial curve, poor fit] |
| Cc1ccc2c(c1)COc1c3ccc(C(=O)N4CCCCC4)cc3nn1-2 |  | active: 4.47 µM |
| CCN1CCN(c2ccc(NC(=O)c3cccc(F)c3)cc2Cl)CC1 |  | inconclusive: 4.47 µM [activator, full curve, poor fit] |
| COc1cccc(-c2nc(-c3ccccn3)no2)c1OC |  | active: 4.47 µM |
| CCOC(=O)c1sc2nc3c(cc2c1N)COC(C)(CC)C3 (configuration not stated) | inconclusive: 206% [activator] [at 1.84 µM, scaled: vehicle 0%, 10 µM genistein 100%] |  |
| CN(C(=O)c1ccc(NC(=O)Cc2ccc(NC(=O)C3CCCN(C(=O)CCc4ccccc4)C3)cc2)cc1)C1CCCC1 (configuration not stated) | inactive: -40.5% |  |
| O=C(Nc1cc(Br)ccc1O)c1cc(-c2ccc3c(c2)OCO3)on1 |  | active: 1.41 µM |
| COc1cccc(-c2nc3sc4c(c3c(=O)[nH]2)CCCCC4)c1 |  | inconclusive: 3.16 µM [activator, partial curve, poor fit] |
| O=[N+]([O-])c1ccc(Cl)c(NC(=S)N2CCCC2)c1 |  | inconclusive: 35.5 µM [activator, single point] |
| COc1ccccc1-c1cnn2c(NC3CCCC3)cc(C)nc12 |  | inconclusive: 2.51 µM [activator, full curve, poor fit] |
| Cc1cc(OC(C)C(=O)N2CCN(c3ccc(F)cc3)CC2)c2c(C)c(C)c(=O)oc2c1 (configuration not stated) | inactive: 0.093% |  |
| CCOC(=O)N1CCC(NCCNC(=O)c2cccc(F)c2)CC1 | inactive: 17.8% |  |
| O=C(COc1ccc(Cl)cc1Cl)c1ccc[nH]1 |  | active: 10 µM |
| O=c1oc(CCCO)cc2ccc(/C=C/c3cccc([N+](=O)[O-])c3)cc12 |  | active: 6.31 µM |

| SMILES | activation | Potency |
| --- | --- | --- |
| N/C(=N\OC(=O)CSc1ccccc1)c1ccncc1 |  | inconclusive: 15.8 µM [activator, partial curve, poor fit] |
| Cc1ccnc(NC(=O)c2oc3ccccc3c2C)c1 | inactive: -20.8% |  |
| O=C(N/N=C/c1ccc([N+](=O)[O-])cc1)c1[nH]ncc1Br |  | inconclusive: 2 µM [activator, partial curve, poor fit] |
| CC(=O)NC(c1cccc(F)c1)c1nc(-c2cc3ccccc3o2)cs1 (configuration not stated) | inactive: -37.1% |  |
| O=C(Nc1ccc(F)cc1Cl)c1ccc2c(=O)n3c(nc2c1)CCC3 |  | inconclusive: 10 µM [activator, partial curve, poor fit] |
| Cc1ccc(OCC(=O)Nc2ccc(-c3nc4ccc(C)cc4o3)cc2)cc1 |  | active: 0.891 µM |
| O=C(NCc1ccco1)c1cc(-c2ccc(F)cc2)on1 |  | active: 8.91 µM |
| COc1cccc(NC(=O)Nc2nc(SC)ns2)c1 |  | inconclusive: 2.82 µM [activator, full curve, poor fit] |
| Cc1ccn(S(=O)(=O)c2ccc3oc(=O)ccc3c2)n1 | inactive: -16.2% |  |
| Cc1cccnc1NC(=O)Nc1ccccc1 |  | inconclusive: 12.6 µM [activator, single point] |
| Cc1nc2ccc(NC(=O)c3ccc(Br)o3)cc2s1 |  | inconclusive: 14.1 µM [activator, partial curve, poor fit] |
| CCOC(=O)c1nn(-c2ccc(Cl)cc2)cc1O |  | inconclusive: 7.94 µM [activator, partial curve, poor fit] |
| C=CCNC(=O)c1cc(-c2ccccc2O)on1 |  | active: 5.62 µM |
| O=C(CSc1nnc(-c2ccccn2)o1)Nc1ccccc1Cl |  | inconclusive: 1.26 µM [activator, full curve, poor fit] |
| COc1ccccc1Nc1nc2c(C)cccc2cc1C#N | inactive: -31.9% |  |
| N#Cc1nc(Cc2ccccc2)oc1NCCc1ccccc1 |  | inconclusive: 15.8 µM [activator, partial curve, poor fit] |
| COc1ccc(NC(=O)C(=S)NC2CCCCC2)cc1 |  | inconclusive: 2.24 µM [activator, full curve, poor fit] |
| Cn1c(-c2ccccc2)cnc1SCC(=O)N1CCCCC1 | inconclusive: -53.5% [activator] |  |
| CCC(C)[C@@H](C(=O)NCC1CCC(C(=O)O)CC1)n1nnc2ccccc2c1=O (some centres not stated) | inactive: 0.767% |  |
| Nc1cc([N+](=O)[O-])ccc1OCc1ccccc1 |  | inconclusive: 2.51 µM [activator, full curve, poor fit] |
| O=C(N/N=C/C(Br)=C/c1ccccc1)c1cccs1 |  | inconclusive: 1.78 µM [activator, partial curve, poor fit] |
| CCOC(=O)c1ccc(NC(=O)c2cnccn2)cc1 |  | inconclusive: 14.1 µM [activator, partial curve, poor fit] |
| Cc1ccc(-n2ncc(Cl)c2C(=O)NCc2ccccc2)cc1 |  | active: 11.2 µM |
| Cc1ccc(C)c(NC(=O)Cn2c(=O)n(Cc3cccs3)c(=O)c3cccnc32)c1 | inactive: -6.85% |  |
| O=C(NCCCCCCNC(=O)OCc1ccccc1)OCc1ccccc1 | inactive: 3.35% |  |
